Test results from the supplement of paper PMC11417369.
± gives the standard deviation of the averaged measurements. The list shows a part of the results.

Tested on: PfAP2-I AP2 domain 3 (GST-tagged)
Test: gcPBM binding intensity (ln(normalized median fluorescence intensity)); higher = stronger DNA binding
Outline: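 Each value is the highest Masliner-normalised natural-log median intensity across replicate spots of either orientation of a probe. The probes were primer-extended double-stranded 36-bp intergenic genomic sequences on an Agilent 4 × 180k array, alongside negative controls, exposed for 1 h to GST-tagged P. falciparum DNA-binding domains expressed in E. coli. Bound protein was picked up with Alexa488 anti-GST antibody and scanned at 488 nm.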

| Sequence | gcPBM binding intensity (ln) |
| --- | --- |
| ATCTTTATTTTTAGCGCACACATAAAATAATAATAA [CACACA_site3458] | 10.2 ± 0.55 |
| CAAAGCATTTTATCTACACACATATATAAATAAATA [CACACA_site7500] | 7.62 ± 0.39 |
| TTTTTTTTTTTATGTGCACACAAAAGATGCTTATAT [CACACA_site2347] | 10.1 ± 0.28 |
| TGATGCAAGATATATACACACATATAAATATAAATA [CACACA_site7429] | 7.67 ± 0.6 |
| TATTTTAACTTTTTTTCCTTTATTCATTTTTTTTTC [CACACA_negctrl_site971] | 7.57 ± 0.79 |
| AAATATATATATATATGTACACACACACATATAAAT [XGTACX_site847] | 8 ± 0.43 |
| CACACTAAAAGACACACACACACACGCATATAAATA [CACACA_site7874] | 8.14 ± 0.25 |
| ATTAAACATACATATACACACACACCCACCCACCCA [CACACA_site8057] | 8.63 ± 0.48 |
| TAGTGTAAAAAATACGCATGTGTACAAATATAATAA [TGCATGCA_site498] | 8.22 ± 0.44 |
| TTGTAGGAATTTATTTTGACTGATAATTAATACGTT [GTGCAC_negctrl_site46] | 7.38 ± 0.57 |
| TAAAGGTGTAAAACTGCATGCTGGAGAAAAGTAAAA [TGCATGCA_site591] | 8.24 ± 0.95 |
| AATAATACGTTAAATGTTCTTACAAGTTGGTTTCAT [CACACA_negctrl_site1029] | 7.66 ± 0.46 |
| AAAAAAAAAAAAAAGTGTACCTTATTATACTTTAAT [XGTACX_site8439] | 7.94 ± 0.38 |
| AAAAAAAAATTTGTATCACACACGTATTATAAAAAA [CACACA_site6] | 7.61 ± 0.52 |
| ATTATATAATATAATGCATGTGTTAATGAAAAATCT [TGCATGCA_site426] | 8.05 ± 0.75 |
| GATATGTACTAATACACACACATATATATATATATA [CACACA_site1022] | 9.28 ± 0.28 |
| ATAATTTTTATTTGTACACACATACAGATATATTAT [CACACA_site4701] | 8.09 ± 0.45 |
| GATATAGATATTAATTGTACATATTATTTATTGTTA [XGTACX_site846] | 7.62 ± 0.36 |
| TTCTAAAAAGGGTGTACACAAACGAATGGAAAATAA [CACACA_site5483] | 8.77 ± 0.54 |
| TAATTTGTTAAAGGTTCACATATGGTATATACTTCT [XGTACX_negctrl_site292] | 7.63 ± 0.51 |
| TAATAAGGTTACAACAAACACACAAAGGAATATACA [CACACA_site4089] | 8.07 ± 0.69 |
| GATATGATTAACTTATGTTATTCTTGATGGTTTCTT [GTGCAC_negctrl_site411] | 7.36 ± 0.58 |
| TTATAAAACCATGTCATCAACATAGGCACAAAAATG [CACACA_negctrl_site1160] | 8.05 ± 0.72 |
| TATCACAAAATATACTGTACATACAGGCAGTAATAT [XGTACX_site2487] | 8.11 ± 0.42 |
